# Whole data set: some 2,900 compounds, median “IRF Lucia reporter activity, fold change vs agonist alone” near 0.9, cut for the highest 2% near 2.8. The list shows a part of the results.
# Assays:
# RAW-Dual [1] = assay: IRF Lucia reporter activity, fold change vs agonist alone; higher = enhanced IRF activity; conditions: library stock concentration (final ~1000-fold dilution): 10 mM, agonist: MPLA (TLR4) […]
# Summary of the method: (§1)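 RAW-Dual macrophages (50,000 cells/well in DMEM, 384-well plates) received 50 nL of library stock by pin tool, then a PRR agonist 1 h later, and were kept at 37 °C, 5% CO2. After 20 hours, supernatant was read for IRF by QuantiLuc luminescence and for NF-κB by QuantiBlue absorbance at 620 nm. Reporter activity is fold change over agonist-alone wells. Cytotoxic wells had IncuCyte confluency below 70% of agonist controls in both mask sets.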
# RAW-Dual [2] = assay: IRF Lucia reporter activity, fold change vs agonist alone; cytotoxicity flag (confluency mask): not cytotoxic; higher = enhanced IRF activity
# Summary of the method: as §1
# RAW-Dual [3] = assay: IRF Lucia reporter activity, fold change vs agonist alone; cytotoxicity flag (confluency mask): cytotoxic (confluency <70% of control); higher = enhanced IRF activity
# Summary of the method: as §1
# [4] = cytotoxicity flag (confluency mask): not cytotoxic
# [5] = agonist: 3'3'-cGAMP (STING) 10 ug/mL
# [6] = cytotoxicity flag (confluency mask): cytotoxic (confluency <70% of control)
smiles,measurement,setting,value
CCC(C)C(NC(=O)C(C(C)CC)N(C)C(C)=O)C(=O)NC(=O)C(NC(CC(C)C)C(=O)C1(C)CO1)C(C)O (stereo not drawn),IRF Lucia reporter activity,RAW-Dual [1]; [4],2.09
CCC(C)C(NC(=O)C(C(C)CC)N(C)C(C)=O)C(=O)NC(=O)C(NC(CC(C)C)C(=O)C1(C)CO1)C(C)O (stereo not drawn) (library stock concentration (final ~1000-fold dilution): 10 mM),IRF Lucia reporter activity,RAW-Dual [2]; [5],1.55
same,IRF Lucia reporter activity,RAW-Dual [2]; agonist: LPS (TLR4) 0.1 ug/mL,4.46
O=C(Oc1ccc([N+](=O)[O-])cc1)N1CCC(C(O)(c2ccc3c(c2)OCO3)c2ccc3c(c2)OCO3)CC1 (library stock concentration (final ~1000-fold dilution): 10 mM),IRF Lucia reporter activity,RAW-Dual [2]; [5],1.02
same,IRF Lucia reporter activity,RAW-Dual [2]; agonist: LPS (TLR4) 0.1 ug/mL,1.11
O=C(Oc1ccc([N+](=O)[O-])cc1)N1CCC(C(O)(c2ccc3c(c2)OCO3)c2ccc3c(c2)OCO3)CC1,IRF Lucia reporter activity,RAW-Dual [1]; [4],1.04
CC1CCC2C(C)C3CCC4C(CC5C4CC(O)C4CC(O)CCC45C)C3CN2C1 (stereo not drawn) (library stock concentration (final ~1000-fold dilution): 10 mM),IRF Lucia reporter activity,RAW-Dual [2]; [5],0.906
same,IRF Lucia reporter activity,RAW-Dual [2]; agonist: LPS (TLR4) 0.1 ug/mL,1.22
CN1CCc2cc3c(cc2C1C1OC(=O)c2c1ccc1c2OCO1)OCO3 (stereo not drawn) (library stock concentration (final ~1000-fold dilution): 10 mM),IRF Lucia reporter activity,RAW-Dual [2]; [5],1.07
same,IRF Lucia reporter activity,RAW-Dual [2]; agonist: LPS (TLR4) 0.1 ug/mL,1.06
CN1CCc2cc3c(cc2C1C1OC(=O)c2c1ccc1c2OCO1)OCO3 (stereo not drawn),IRF Lucia reporter activity,RAW-Dual [1]; [4],1.15
COc1cc2c(cc1OC)C1CC(=O)C(CC(C)C)CN1CC2 (stereo not drawn) (library stock concentration (final ~1000-fold dilution): 10 mM),IRF Lucia reporter activity,RAW-Dual [2]; [5],1.1
same,IRF Lucia reporter activity,RAW-Dual [2]; agonist: LPS (TLR4) 0.1 ug/mL,0.906
COc1cc2c(cc1OC)C1CC(=O)C(CC(C)C)CN1CC2 (stereo not drawn),IRF Lucia reporter activity,RAW-Dual [1]; [4],0.72
CCc1c2c(nc3ccccc13)-c1cc3c(c(=O)n1C2)COC(=O)C3(O)CC (stereo not drawn) (library stock concentration (final ~1000-fold dilution): 10 mM),IRF Lucia reporter activity,RAW-Dual [3]; [5],0.919
same,IRF Lucia reporter activity,RAW-Dual [3]; agonist: LPS (TLR4) 0.1 ug/mL,0.139
CCc1c2c(nc3ccccc13)-c1cc3c(c(=O)n1C2)COC(=O)C3(O)CC (stereo not drawn),IRF Lucia reporter activity,RAW-Dual [1]; [6],0.987
Cc1sc2c(c1C)C(c1ccc(Cl)cc1)=NC(CC(=O)OC(C)(C)C)c1nnc(C)n1-2 (stereo not drawn),IRF Lucia reporter activity,RAW-Dual [1]; [6],0.122
Cc1sc2c(c1C)C(c1ccc(Cl)cc1)=NC(CC(=O)OC(C)(C)C)c1nnc(C)n1-2 (stereo not drawn) (library stock concentration (final ~1000-fold dilution): 10 mM),IRF Lucia reporter activity,RAW-Dual [3]; [5],0.193
same,IRF Lucia reporter activity,RAW-Dual [3]; agonist: LPS (TLR4) 0.1 ug/mL,0.185
O=S(=O)(F)Cc1ccccc1 (library stock concentration (final ~1000-fold dilution): 10 mM),IRF Lucia reporter activity,RAW-Dual [2]; [5],0.995
same,IRF Lucia reporter activity,RAW-Dual [2]; agonist: LPS (TLR4) 0.1 ug/mL,1.09
O=S(=O)(F)Cc1ccccc1,IRF Lucia reporter activity,RAW-Dual [1]; [4],1.08
Br.COc1ccc2c(c1)C13CCCCC1C(C2)N(C)CC3.O (stereo not drawn) (library stock concentration (final ~1000-fold dilution): 10 mM),IRF Lucia reporter activity,RAW-Dual [2]; [5],0.827
same,IRF Lucia reporter activity,RAW-Dual [2]; agonist: LPS (TLR4) 0.1 ug/mL,1.18
Br.COc1ccc2c(c1)C13CCCCC1C(C2)N(C)CC3.O (stereo not drawn),IRF Lucia reporter activity,RAW-Dual [1]; [4],1.03
CCNCC.O=C(O)Cc1ccccc1Nc1c(Cl)cccc1Cl,IRF Lucia reporter activity,RAW-Dual [1]; [4],0.892
CCNCC.O=C(O)Cc1ccccc1Nc1c(Cl)cccc1Cl (library stock concentration (final ~1000-fold dilution): 10 mM),IRF Lucia reporter activity,RAW-Dual [2]; [5],0.91
same,IRF Lucia reporter activity,RAW-Dual [2]; agonist: LPS (TLR4) 0.1 ug/mL,1.04
COc1cc(-n2c(S)nc3ccccc3c2=O)c(Cl)cc1Cl (library stock concentration (final ~1000-fold dilution): 10 mM),IRF Lucia reporter activity,RAW-Dual [2]; [5],0.865
same,IRF Lucia reporter activity,RAW-Dual [2]; agonist: LPS (TLR4) 0.1 ug/mL,0.58
COc1cc(-n2c(S)nc3ccccc3c2=O)c(Cl)cc1Cl,IRF Lucia reporter activity,RAW-Dual [1]; [4],1.11
Cc1cc(C(=O)CN2CCCC2)c(C)n1-c1ccc(F)cc1 (library stock concentration (final ~1000-fold dilution): 10 mM),IRF Lucia reporter activity,RAW-Dual [2]; [5],0.913
same,IRF Lucia reporter activity,RAW-Dual [2]; agonist: LPS (TLR4) 0.1 ug/mL,1.48
Cc1cc(C(=O)CN2CCCC2)c(C)n1-c1ccc(F)cc1,IRF Lucia reporter activity,RAW-Dual [1]; [4],1.2
CC1CCC/C=C/C2CC(O)CC2C(O)/C=C/C(=O)O1 (stereo not drawn),IRF Lucia reporter activity,RAW-Dual [1]; [4],0.153
CC1CCC/C=C/C2CC(O)CC2C(O)/C=C/C(=O)O1 (stereo not drawn) (library stock concentration (final ~1000-fold dilution): 10 mM),IRF Lucia reporter activity,RAW-Dual [2]; [5],0.0117
same,IRF Lucia reporter activity,RAW-Dual [2]; agonist: LPS (TLR4) 0.1 ug/mL,0.236
CC(C)c1ccc2c(c1O)CCC1C3=C(CCC21C)C(=O)OC3 (stereo not drawn) (library stock concentration (final ~1000-fold dilution): 10 mM),IRF Lucia reporter activity,RAW-Dual [2]; [5],0.917
same,IRF Lucia reporter activity,RAW-Dual [2]; agonist: LPS (TLR4) 0.1 ug/mL,1.25
COc1ccc2c(c1O)-c1c(OC)c(OC)cc3c1C(C2)N(C)CC3 (stereo not drawn) (library stock concentration (final ~1000-fold dilution): 10 mM),IRF Lucia reporter activity,RAW-Dual [2]; [5],1
same,IRF Lucia reporter activity,RAW-Dual [2]; agonist: LPS (TLR4) 0.1 ug/mL,0.907
COc1ccc(C=O)cc1O,IRF Lucia reporter activity,RAW-Dual [1]; [4],1.06
COc1ccc(C=O)cc1O (library stock concentration (final ~1000-fold dilution): 10 mM),IRF Lucia reporter activity,RAW-Dual [2]; [5],1.08
same,IRF Lucia reporter activity,RAW-Dual [2]; agonist: LPS (TLR4) 0.1 ug/mL,1.24
CCNC1(c2cccs2)CCCCC1=O.Cl (stereo not drawn),IRF Lucia reporter activity,RAW-Dual [1]; [4],1.05
CCNC1(c2cccs2)CCCCC1=O.Cl (stereo not drawn) (library stock concentration (final ~1000-fold dilution): 10 mM),IRF Lucia reporter activity,RAW-Dual [2]; [5],0.511
same,IRF Lucia reporter activity,RAW-Dual [2]; agonist: LPS (TLR4) 0.1 ug/mL,1.38

# From the supplement of paper PMC10037445
